According to the supplement of paper PMC10126150:
Values marked as one replicate rest on one cluster of the flow cell; about a third of the high ones do not repeat.

System: ATP
Assay: switch fluorescence ratio, 500 uM ATP over buffer (Cy3 cluster intensity, sum of 5 cycles each) (fold (ratio)); higher = stronger signal-on switching upon ATP binding; sequences stand for … in TCGTCGGCAGCGTCAGATGTGTATAAGAGACAGTTTTTTTTTTTTTTTTTTTTTTTTT…TC
Conditions: aptamer strand: ATP DNA aptamer (quencher-CACCTGGGGGAGTATTGCGGAGGAAGG + anchor), 100 nM annealed; ATP concentration: 500 uM; one replicate
Procedure, shortened: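 Cy3-labelled switching-strand clusters on a modified Illumina MiSeq flow-cell were annealed to 100 nM quencher-labelled ATP aptamer, imaged in selection buffer, then imaged after 15 min with 500 uM ATP at 22 °C. Five buffer/ATP cycles ran, with NaOH stripping and re-annealing between them. The fluorescence ratio is summed target-cycle over summed buffer-cycle Cy3 intensity per cluster, averaged per switch-domain sequence. Clusters outside 100-1000 RFU were excluded.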
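Further: ATP exposure 15 min at 22 °C before imaging.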

GGCGTGTCCC showed a switch fluorescence ratio of 1.09.
AAGCCCTAGG gave a switch fluorescence ratio of 1.04.
Work on GGGCAGGCTA yielded a switch fluorescence ratio of 0.994.
Sequence CCTTAAGAAG has a switch fluorescence ratio of 0.987.
Work on TCGTTCCTGA yielded a switch fluorescence ratio of 0.989.
Work on ATAACCCCTC yielded a switch fluorescence ratio of 1.06.
Sequence GATTCATGCT has a switch fluorescence ratio of 0.986.
GGCCTTCACC was tested, and the switch fluorescence ratio was 1.1.
TCGTTACACT showed a switch fluorescence ratio of 1.1.
Work on TCGAGATGAC yielded a switch fluorescence ratio of 1.06.
TGCAGTAGTC showed a switch fluorescence ratio of 1.2.
For TTGTAATACG, the switch fluorescence ratio was 1.17.
TTTCTTACT showed a switch fluorescence ratio of 0.958.
CAGTAACAGA was tested, and the switch fluorescence ratio was 1.03.
Work on GTCGCACGTG yielded a switch fluorescence ratio of 1.06.
CCCGGACATC showed a switch fluorescence ratio of 1.5.
With TGCGCACACA the switch fluorescence ratio was 1.04.
With GCTTGACGGC the switch fluorescence ratio was 1.1.
In the case of TTGGAGTGAA, the switch fluorescence ratio is reported as 1.03.
Work on CCTAGTAGGT yielded a switch fluorescence ratio of 1.03.
In the case of AGGGTCCGG, the switch fluorescence ratio is reported as 1.06.
TCCCCTTTGT gave a switch fluorescence ratio of 1.05.
GGTTAATGAT was tested, and the switch fluorescence ratio was 1.02.
In the case of CGTTGGATGG, the switch fluorescence ratio is reported as 1.01.
CCTGATGAGC showed a switch fluorescence ratio of 1.34.
Work on TGGGCCGGAC yielded a switch fluorescence ratio of 0.959.
GAGCGACGGT gave a switch fluorescence ratio of 0.977.
GCTGTGGTAA gave a switch fluorescence ratio of 1.
With ACTTTACGTT the switch fluorescence ratio was 1.23.
AGAGGTCATT gave a switch fluorescence ratio of 1.02.
CATATCTTGG showed a switch fluorescence ratio of 1.02.
With CAGCGAGCAC the switch fluorescence ratio was 1.31.
Work on GATCCGCCTG yielded a switch fluorescence ratio of 1.22.
TACGTCCACC showed a switch fluorescence ratio of 1.47.
For TAGCACCTGG, the switch fluorescence ratio was 1.01.
GAGTTTAGCC was tested, and the switch fluorescence ratio was 0.961.
For CAATCGCGAT, the switch fluorescence ratio was 1.01.
CCGTTGCCAA was tested, and the switch fluorescence ratio was 2.29.
CAAGGCGCTC gave a switch fluorescence ratio of 0.958.
CGCATAAAGA gave a switch fluorescence ratio of 1.04.
GGTCCCATCT showed a switch fluorescence ratio of 0.965.
With ATCTTCCTTT the switch fluorescence ratio was 1.1.
For GCTAGCTTAG, the switch fluorescence ratio was 0.994.
With ATACAAATAC the switch fluorescence ratio was 1.52.
For CAATCCTAAA, the switch fluorescence ratio was 0.959.
In the case of TACAGCCTTC, the switch fluorescence ratio is reported as 1.11.
For CATCCCCCAG, the switch fluorescence ratio was 6.21.
In the case of CCCTGGGTAT, the switch fluorescence ratio is reported as 1.
TAGGTGTCTA showed a switch fluorescence ratio of 0.987.
TAAACTTTTC was tested, and the switch fluorescence ratio was 1.01.
AGCATTATT gave a switch fluorescence ratio of 1.04.
AGATTTTACG showed a switch fluorescence ratio of 1.
For GGGTGCCATT, the switch fluorescence ratio was 0.991.
TGGATACCCG gave a switch fluorescence ratio of 0.999.
With CTTATCGTGT the switch fluorescence ratio was 0.995.
Work on GCGTTGAAAA yielded a switch fluorescence ratio of 1.01.
CAATGTAAG was tested, and the switch fluorescence ratio was 1.02.
Work on TCGATTGGCC yielded a switch fluorescence ratio of 0.993.
Work on AACCTAGGGA yielded a switch fluorescence ratio of 1.08.
Work on GCTGAGTTTA yielded a switch fluorescence ratio of 0.976.
Work on AGTAGTTATG yielded a switch fluorescence ratio of 0.962.
In the case of GTGCTCATTG, the switch fluorescence ratio is reported as 1.
GTGTAGCACT showed a switch fluorescence ratio of 1.06.
For ATCAGAAA, the switch fluorescence ratio was 1.03.
TAAGCTTAAG showed a switch fluorescence ratio of 0.942.
In the case of GAAAAAGTAA, the switch fluorescence ratio is reported as 1.01.
In the case of TAGCGATTG, the switch fluorescence ratio is reported as 1.45.
Work on AGGGCTCATT yielded a switch fluorescence ratio of 0.968.
GGTTTGAATG showed a switch fluorescence ratio of 1.05.
Sequence GAGGCTTTTC has a switch fluorescence ratio of 1.11.
TTGTGGAAAG showed a switch fluorescence ratio of 1.02.
Work on TATCCGGGC yielded a switch fluorescence ratio of 1.07.
For TTACAAAAAT, the switch fluorescence ratio was 0.944.
TGCTATACGT was tested, and the switch fluorescence ratio was 1.24.
In the case of CGTAGGGATA, the switch fluorescence ratio is reported as 1.06.
Work on TCACTAATTA yielded a switch fluorescence ratio of 1.02.
AAGGAATATA showed a switch fluorescence ratio of 1.07.
Work on CTTTGACAGC yielded a switch fluorescence ratio of 1.03.
For TCGGCCGCGG, the switch fluorescence ratio was 1.12.
For TAGTTAAGTT, the switch fluorescence ratio was 1.16.
With CGTAGAAAAT the switch fluorescence ratio was 1.
With AATTGTGTAA the switch fluorescence ratio was 0.979.
In the case of GAACAAGTTG, the switch fluorescence ratio is reported as 0.993.
Sequence TCTACTAGAC has a switch fluorescence ratio of 1.23.
GATCGGGGAG gave a switch fluorescence ratio of 1.02.
Sequence TCGGGTCTTT has a switch fluorescence ratio of 1.01.
ATCTTTGCCA showed a switch fluorescence ratio of 1.33.
CGGCGTAAAG was tested, and the switch fluorescence ratio was 1.01.
TAAGCCGACA was tested, and the switch fluorescence ratio was 1.04.
For CACACAGCCA, the switch fluorescence ratio was 1.13.
GGCGGGAAT showed a switch fluorescence ratio of 0.953.
In the case of CATTGGCTTT, the switch fluorescence ratio is reported as 1.
TGGGCGACGG was tested, and the switch fluorescence ratio was 1.03.
For CTGATTTAAT, the switch fluorescence ratio was 0.996.
CGCCTTTGAA gave a switch fluorescence ratio of 1.
GAACAAGGGT gave a switch fluorescence ratio of 0.922.
CAAGTTAGCG gave a switch fluorescence ratio of 0.976.
Sequence TAAGTAAGAT has a switch fluorescence ratio of 1.07.
CTGGTAACTA was tested, and the switch fluorescence ratio was 0.986.
Work on TCTGGTATTA yielded a switch fluorescence ratio of 0.992.
For ATTGCAAGGA, the switch fluorescence ratio was 1.04.
AGAGGGGTCC gave a switch fluorescence ratio of 1.05.
GCGTTCAGAG showed a switch fluorescence ratio of 0.99.
In the case of ATCCCGGTCT, the switch fluorescence ratio is reported as 0.951.
Work on AGGCTTCCGG yielded a switch fluorescence ratio of 1.1.
With GACTTGTGGA the switch fluorescence ratio was 0.969.
For TGTTTGCTAT, the switch fluorescence ratio was 0.989.
ATCAGATCCG gave a switch fluorescence ratio of 0.983.
GCCGCCAGTT was tested, and the switch fluorescence ratio was 1.03.
AAAGGGCATA was tested, and the switch fluorescence ratio was 1.22.
Sequence AGAGTTTTAA has a switch fluorescence ratio of 1.
CGACTCGTAG was tested, and the switch fluorescence ratio was 0.999.
GGCGTGTACC showed a switch fluorescence ratio of 1.02.
Work on AATTCTGAGC yielded a switch fluorescence ratio of 1.01.
ATCTCGGA gave a switch fluorescence ratio of 0.992.
Work on AGTTGCATAC yielded a switch fluorescence ratio of 1.35.
GTTCTGTCAT gave a switch fluorescence ratio of 0.961.
In the case of CTACCTTTGG, the switch fluorescence ratio is reported as 0.999.
In the case of GGATTGCAAC, the switch fluorescence ratio is reported as 1.01.
For GGGAGACCTA, the switch fluorescence ratio was 0.95.
Sequence CCTTGACGAG has a switch fluorescence ratio of 0.97.
In the case of TATGCAATGG, the switch fluorescence ratio is reported as 2.51.
For TGTCTTTCT, the switch fluorescence ratio was 0.995.
With TTAGTAACTT the switch fluorescence ratio was 1.03.
TCCACTGTTA gave a switch fluorescence ratio of 1.09.
Work on CTCGAACGCG yielded a switch fluorescence ratio of 1.04.
For TAGTCCGTAT, the switch fluorescence ratio was 1.02.
For GTTATCTTG, the switch fluorescence ratio was 0.999.
GCTGTTAGCG showed a switch fluorescence ratio of 0.988.
In the case of AATCCAATTG, the switch fluorescence ratio is reported as 0.993.
Sequence AAGGAACTAG has a switch fluorescence ratio of 1.02.
GATTTGCGTC was tested, and the switch fluorescence ratio was 0.976.
In the case of TCTACTCTT, the switch fluorescence ratio is reported as 0.997.
GCCCACAAC was tested, and the switch fluorescence ratio was 1.57.
TCACGAGGGC gave a switch fluorescence ratio of 1.03.
Sequence GTGCACGAGG has a switch fluorescence ratio of 1.
Sequence CGAATGGCGA has a switch fluorescence ratio of 1.
With TGGTCCTGGA the switch fluorescence ratio was 0.985.
In the case of ACGGCAGATG, the switch fluorescence ratio is reported as 0.994.
Work on GGGAGAAGGC yielded a switch fluorescence ratio of 0.975.
In the case of TGTACGTATA, the switch fluorescence ratio is reported as 1.09.
Work on ACTGACAGGG yielded a switch fluorescence ratio of 0.956.
TGAGAAGTTC gave a switch fluorescence ratio of 0.985.
ATCTTAATTT gave a switch fluorescence ratio of 1.01.
GATAACAACC showed a switch fluorescence ratio of 1.04.
In the case of TAGCCGGAAT, the switch fluorescence ratio is reported as 1.1.
GTAACCGATA gave a switch fluorescence ratio of 1.03.
For GTAGGACTAT, the switch fluorescence ratio was 1.03.
For AAGCCCAATT, the switch fluorescence ratio was 0.965.
TAGCCTAATT showed a switch fluorescence ratio of 1.03.
GACAAGACGG showed a switch fluorescence ratio of 1.14.
For ATAGCCAGTA, the switch fluorescence ratio was 0.925.
Sequence CGTGAAATTT has a switch fluorescence ratio of 0.987.
With ATATTTGCG the switch fluorescence ratio was 0.933.
Sequence AAGTCTTGGA has a switch fluorescence ratio of 0.996.
Work on TGCGAGGATT yielded a switch fluorescence ratio of 1.
GGAAACGTTA gave a switch fluorescence ratio of 1.12.
GCAGGTGAAA was tested, and the switch fluorescence ratio was 1.18.
For GGTGACTACG, the switch fluorescence ratio was 1.01.
TGAAAGTTCG showed a switch fluorescence ratio of 0.978.
In the case of TGTTGGGTCA, the switch fluorescence ratio is reported as 0.977.
Work on ATATTAAGT yielded a switch fluorescence ratio of 0.972.
With GCTGGTTAC the switch fluorescence ratio was 1.04.
In the case of AAGTCTGCGT, the switch fluorescence ratio is reported as 0.976.
GAGTTATCGC showed a switch fluorescence ratio of 1.01.
For GATACGTCAC, the switch fluorescence ratio was 2.06.
GGGATACGTT gave a switch fluorescence ratio of 0.973.
GCAACTAGCG showed a switch fluorescence ratio of 1.05.
With TTCTCGACTT the switch fluorescence ratio was 1.
ACTTATGGT was tested, and the switch fluorescence ratio was 1.05.
Work on AGACAGCGTT yielded a switch fluorescence ratio of 1.01.
GGGTCGCTCA gave a switch fluorescence ratio of 0.979.
Sequence TATCAGACG has a switch fluorescence ratio of 1.02.
TAAACATCA gave a switch fluorescence ratio of 1.04.
TAGGCTTTCA showed a switch fluorescence ratio of 0.967.
In the case of TAGTGTGCGC, the switch fluorescence ratio is reported as 1.03.
For TTCCACTGG, the switch fluorescence ratio was 1.73.
TCGAAGACGA was tested, and the switch fluorescence ratio was 1.12.
Work on CTATTAGACA yielded a switch fluorescence ratio of 0.962.
With GGTTTCCTGA the switch fluorescence ratio was 0.989.
In the case of AGTCAGCGGC, the switch fluorescence ratio is reported as 1.01.
ATGTAGTGG showed a switch fluorescence ratio of 0.976.
CACTCCGTTG gave a switch fluorescence ratio of 1.38.
ACAATGAAAT gave a switch fluorescence ratio of 0.976.
Work on CGGCTTGTAG yielded a switch fluorescence ratio of 1.01.
AACTTAATAT gave a switch fluorescence ratio of 0.978.
AGGTTGAATA was tested, and the switch fluorescence ratio was 0.971.
In the case of CGACCAGGTT, the switch fluorescence ratio is reported as 1.95.
Sequence TTCCTGTTCT has a switch fluorescence ratio of 1.26.
AATGCATGC was tested, and the switch fluorescence ratio was 1.03.
GCATAGGCGT showed a switch fluorescence ratio of 0.979.
Sequence GCTAGGAATG has a switch fluorescence ratio of 1.03.
Work on CAAACGCTAG yielded a switch fluorescence ratio of 1.09.
CGTGAAGTAG gave a switch fluorescence ratio of 0.983.
Sequence GCTTGGACTT has a switch fluorescence ratio of 1.02.
Work on AATTTTGCAT yielded a switch fluorescence ratio of 1.02.
With ATATGTTGTA the switch fluorescence ratio was 0.941.
AGGAAATCGT showed a switch fluorescence ratio of 0.964.
CGGTGGTTTC gave a switch fluorescence ratio of 1.01.
With TAACGAGTCC the switch fluorescence ratio was 1.02.
For TCGTTGCTCT, the switch fluorescence ratio was 1.11.
